Measurements published in the supplement of paper PMC12217912.
Some of the results follow. Sequences were assembled here from the parent chain. Values near 0.05 are background.

B1: TEV protease; numbered along this chain (parent)
chain: MGESLFKGPRDYNPISSSICHLTNESDGHTTSLYGIGFGPFIITNKHLFRRNNGTLVVQSLHGVFKVKDTTTLQQHLVDGRDMIIIRMPKDFPPFPQKLKFREPQREERICLVTTNFQTKSMSSMVSDTSCTFPSGDGIFWKHWIQTKDGQCGSPLVSTRDGFIVGIHSASNFTNTNNYFTSVPKNFMELLTNQEAQQWVSGWRLNADSVLWGGHKVFMVKPEEPFQPVKEATQL

Variants of: B1
Assay: raw area under fraction-flipped curve 0-4 h after induction (AUC4h, not background-subtracted), DNA-recorder readout of cleavage of the substrate (dimensionless); higher = more cleavage of the substrate by the protease variant
Settings: temperature: 34 °C; time window: 0-4 h after rhamnose induction
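Further: Bxb1 expression induced with 0.2% (w/v) L-rhamnose at OD600 near 0.5, cultures sampled hourly, flipped fraction per protease–substrate barcode pair counted by paired-end Illumina sequencing.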

Variant | area with substrate ENLDFQS | area with substrate ENLEFQS | area with substrate ENLFFQS | area with substrate ENLHFQS | area with substrate ENLKFQS | area with substrate ENLLFQS | area with substrate ENLNFQS | area with substrate ENLPFQS | area with substrate ENLQFQS | area with substrate ENLSFQS | area with substrate ENLWFQS | area with substrate ENLGFQS | area with substrate ENLIFQS | area with substrate ENLMFQS | area with substrate ENLRFQS | area with substrate ENLVFQS | area with substrate ENLTFQS
G202V | 0.0614 | 0.0565 | 0.0573 | 0.07 | 0.0576 | 0.063 | 0.0528 | 0.0679 | 0.0604 | 0.064 | 0.0534 | – | – | – | – | – | –
V157R | 0.0612 | 0.0584 | 0.0627 | 0.0629 | 0.0923 | 0.0464 | 0.0725 | – | 0.052 | 0.0596 | 0.0684 | 0.0749 | 0.0621 | 0.0704 | 0.0631 | – | –
G166T | 0.0554 | 0.0619 | 0.0532 | 0.0355 | 0.0411 | 0.0555 | – | 0.0523 | – | 0.0519 | – | – | – | 0.033 | 0.0456 | – | –
L191I | 0.0596 | – | 0.0856 | 0.0763 | 0.0675 | 0.061 | 0.0616 | – | 0.0525 | 0.0523 | – | – | 0.0625 | – | 0.053 | – | –
S169A | 0.0414 | – | 0.101 | 0.0569 | 0.0842 | 0.0806 | 0.0585 | – | 0.0542 | – | 0.0582 | – | 0.0634 | – | 0.0657 | – | –
P134L | 0.0691 | – | 0.0722 | 0.0923 | 0.0727 | – | 0.063 | 0.058 | – | 0.0646 | – | – | 0.0559 | – | 0.0602 | 0.0792 | –
W144T | 0.0739 | 0.0487 | 0.0557 | 0.0749 | 0.0664 | – | 0.0628 | – | – | 0.0436 | – | – | – | 0.0917 | – | 0.0787 | –
V113C | 0.0677 | – | 0.101 | 0.0565 | 0.0716 | – | 0.0755 | 0.073 | 0.057 | 0.0583 | – | – | – | – | – | – | –
P89F | 0.0514 | 0.0602 | 0.0492 | – | – | 0.0641 | 0.0556 | 0.0579 | – | – | 0.0522 | – | – | – | – | – | –
I145C | 0.0623 | 0.0706 | 0.107 | 0.0728 | 0.097 | – | 0.0724 | – | 0.0871 | 0.0588 | 0.0752 | 0.0723 | 0.0754 | 0.0817 | 0.0703 | 0.0827 | –
K100N | 0.0583 | 0.0676 | 0.094 | 0.0534 | 0.0899 | 0.0656 | 0.0609 | 0.0496 | – | – | – | 0.0659 | 0.0954 | 0.054 | – | – | –
E108Y | 0.0642 | 0.0615 | 0.0365 | 0.0405 | 0.0546 | – | – | 0.0501 | 0.0694 | 0.058 | 0.0636 | – | 0.0569 | – | 0.0462 | 0.0663 | –
G136P | 0.0594 | – | – | – | – | 0.0571 | – | 0.0577 | 0.0623 | 0.0571 | 0.0412 | 0.0732 | 0.0589 | – | 0.053 | – | –
E103K | 0.0674 | 0.068 | 0.0812 | 0.0523 | 0.057 | – | 0.06 | 0.0494 | 0.0793 | 0.0838 | 0.0604 | 0.0728 | 0.0879 | 0.0774 | 0.0776 | – | –
K185P | 0.061 | – | 0.0933 | – | – | – | 0.0681 | 0.0647 | 0.0849 | 0.0923 | – | – | – | – | 0.0798 | – | –
T147Y | 0.074 | – | – | – | – | 0.0331 | 0.0404 | 0.0431 | 0.0955 | – | – | 0.0624 | – | – | – | – | –

Variant | area with substrate ENLDFQS | area with substrate ENLEFQS | area with substrate ENLFFQS | area with substrate ENLHFQS | area with substrate ENLKFQS | area with substrate ENLLFQS | area with substrate ENLNFQS | area with substrate ENLPFQS | area with substrate ENLQFQS | area with substrate ENLSFQS | area with substrate ENLWFQS | area with substrate ENLGFQS | area with substrate ENLIFQS | area with substrate ENLMFQS | area with substrate ENLRFQS | area with substrate ENLVFQS | area with substrate ENLTFQS
I164E | 0.0643 | 0.0539 | 0.0441 | 0.0512 | 0.0598 | 0.0497 | 0.0559 | 0.0507 | 0.0396 | 0.0506 | – | 0.0551 | – | – | 0.0502 | 0.0598 | –
K120L | 0.081 | 0.0694 | 0.0746 | – | – | 0.0625 | 0.05 | 0.061 | – | 0.0519 | – | – | 0.0678 | – | – | – | –
M125L | 0.0604 | 0.0653 | 0.0798 | 0.0843 | 0.0741 | – | 0.0733 | 0.0703 | 0.0594 | 0.0611 | – | 0.102 | 0.0742 | – | 0.0809 | 0.0811 | –
P155M | 0.0673 | 0.0522 | 0.078 | 0.0477 | – | – | 0.0598 | 0.0557 | 0.0673 | 0.0601 | 0.0537 | 0.0754 | 0.0572 | – | 0.062 | – | 0.0593
F101Q | 0.0421 | 0.0598 | 0.0501 | 0.051 | 0.0698 | 0.0508 | 0.0566 | – | – | 0.0648 | – | 0.0682 | – | – | – | – | 0.0596
L73G | 0.0565 | 0.0412 | 0.0519 | 0.0536 | 0.0573 | 0.0342 | – | 0.051 | – | – | – | – | 0.0432 | 0.049 | 0.0614 | – | 0.0592
K98Q | 0.0672 | 0.0748 | 0.0901 | 0.0671 | 0.0879 | 0.0823 | 0.0701 | 0.0637 | 0.0516 | – | 0.0694 | 0.05 | 0.0851 | – | 0.0863 | – | –
G153Y | 0.0577 | 0.048 | 0.0539 | 0.0427 | 0.0532 | – | 0.0468 | 0.06 | – | 0.0545 | 0.0484 | 0.0415 | 0.0546 | – | – | – | –
Q118H | 0.0938 | – | 0.0936 | 0.0782 | 0.0488 | 0.0719 | 0.0672 | 0.0654 | 0.0677 | – | 0.0711 | – | – | – | 0.0553 | – | –
Q118F | 0.059 | 0.0739 | 0.0767 | 0.0629 | 0.0882 | – | 0.0578 | 0.012 | – | 0.0727 | – | – | – | – | 0.0602 | – | 0.0617
Q197C | 0.0619 | – | – | 0.0717 | 0.0979 | 0.0907 | 0.0558 | – | – | – | 0.0711 | 0.0757 | – | 0.0933 | – | 0.073 | –
I85F | 0.0354 | 0.0595 | 0.0743 | – | 0.0655 | – | 0.0818 | 0.0549 | – | 0.0375 | – | 0.0383 | 0.0938 | 0.0648 | 0.0612 | 0.0758 | –
D79V | 0.0663 | 0.0836 | 0.0768 | 0.0691 | 0.0734 | 0.053 | 0.0694 | 0.0718 | 0.0655 | 0.0623 | 0.0629 | 0.075 | 0.0819 | – | – | – | –
M188L | 0.0522 | – | 0.0749 | 0.0807 | 0.0764 | 0.0544 | – | 0.0672 | 0.0488 | 0.0777 | – | – | 0.0557 | – | – | 0.0812 | –
N193P | 0.0588 | – | 0.0575 | 0.0549 | 0.063 | 0.0684 | 0.0754 | – | 0.0637 | 0.0678 | 0.0698 | 0.05 | 0.0824 | – | 0.0757 | 0.0823 | –
T159G | 0.0561 | 0.0729 | – | 0.006 | 0.0735 | 0.0737 | 0.0625 | – | 0.0587 | 0.062 | 0.0723 | – | 0.0833 | – | – | 0.094 | –
